Results from the supplement of paper PMC3334620.
Whole data set: some 33,000 sequences, median “E-score (-0.5 to 0.5)” near -0.016, cut for the highest 2% near 0.32. The list shows a part of the results.

The sequences below were run against T1, Stp1 (UniProt B3LFK1) (assay: PBM E-score (8-mer binding enrichment) (E-score (-0.5 to 0.5)); higher = stronger / more preferred TF binding; most listed sequences are background and not binding sites). Settings: protein concentration: 200 nM; construct: GST-full length.
T1 sequence: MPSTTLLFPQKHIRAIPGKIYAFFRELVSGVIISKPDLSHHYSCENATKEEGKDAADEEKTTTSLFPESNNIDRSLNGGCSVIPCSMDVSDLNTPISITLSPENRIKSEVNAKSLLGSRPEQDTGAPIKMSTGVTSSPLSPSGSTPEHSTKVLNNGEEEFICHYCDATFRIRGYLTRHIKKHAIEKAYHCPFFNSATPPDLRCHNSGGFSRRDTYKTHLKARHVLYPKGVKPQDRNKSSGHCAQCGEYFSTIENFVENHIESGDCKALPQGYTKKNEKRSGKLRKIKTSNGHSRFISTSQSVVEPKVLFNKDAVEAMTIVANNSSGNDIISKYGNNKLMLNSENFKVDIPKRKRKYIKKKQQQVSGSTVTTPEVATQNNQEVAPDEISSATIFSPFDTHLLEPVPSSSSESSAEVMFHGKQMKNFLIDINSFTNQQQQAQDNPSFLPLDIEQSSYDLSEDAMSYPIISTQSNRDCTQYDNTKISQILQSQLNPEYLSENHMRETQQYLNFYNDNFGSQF
In short: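 Bound GST-tagged yeast transcription factors, applied at about 100-200 nM to double-stranded universal all-10-mer Agilent arrays, were detected with fluorescent anti-GST. Scans were normalised with masliner. A modified Wilcoxon-Mann-Whitney statistic, the E-score, was assigned to each ungapped eight-base word pooled with its reverse complement by the Universal PBM Analysis Suite.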

Point of comparison: AGAACACA, “PBM E-score” value 0.0195. Against it:
- GTACTTGA — lower, -0.036
- ACCTTCTC — lower, -0.251
- ACCTGCCG — higher, 0.0995
- CCGCTGAG — lower, -0.0707
- GGGGGGAC — lower, -0.484
- ACTTGGAC — higher, 0.0954
- AAAAAATC — higher, 0.159
- CAGTGATG — higher, 0.0775
- CAGTCAAG — lower, -0.18
- GCACCTAC — lower, -0.16
- TAGACCAA — higher, 0.0723
- GGATCCCA — lower, -0.157
- CTATGTGA — lower, -0.101
- CGAACATA — higher, 0.0688
- AGGTTAGC — lower, -0.175
- TCAATGAA — higher, 0.0662
- AGACATAG — higher, 0.102
- AGCGGCTA — higher, 0.165
- ATTGCGCC — higher, 0.308
- ACCGACTC — lower, -0.172
- CGTTCGAC — lower, -0.0707
- ATGACCCC — lower, -0.255
- TACCAGAA — higher, 0.0702
- AGAAATGA — higher, 0.0622
- AATAAGTG — higher, 0.0724
- AGCTTCTA — lower, -0.107
- ACACATCT — lower, -0.0334
- CCCACTAA — lower, -0.0484
- AAGGTCGG — lower, -0.217
- TAAAATGA — higher, 0.156
- CCAGTGGC — lower, -0.0717
- CTATTACC — lower, -0.0513
- ACGGGTAC — higher, 0.0251
- AAGTAGAG — lower, -0.12
- GGGCTGAC — lower, -0.134
- ATGGGAGG — lower, -0.276
- CTCAACGA — lower, -0.0461
- ATGACGCA — lower, -0.0189
- GCCCGGCA — lower, -0.0116
- CCCTAGCC — lower, -0.0961
- CTTTAGGC — lower, -0.0119
- ACGTACAA — lower, -0.0142
- CGTGGCAC — higher, 0.236
- CCCAGCTC — lower, -0.225
- GAATCCTC — lower, -0.181
- CAGAGTCC — lower, -0.0446
- TGCATGCA — higher, 0.134
- AGCTCGTA — lower, -0.0375
- ATCGTCTC — lower, -0.0455
- ACTACTAC — higher, 0.0938
- ATTCAATG — higher, 0.192
- AAATGGCT — higher, 0.144
- AAGGTTAC — lower, -0.0639
- CTTGTACC — lower, -0.0231
- GCTTTCCC — lower, -0.0471
- CGGGTGTA — lower, -0.08
- TACAGCGA — lower, -0.156
- CGTGTCAC — higher, 0.231
- GACGACGC — lower, -0.00573
- ATCGGCCA — lower, -0.0532
- ACCAGCCA — lower, -0.159
- CACGTACC — lower, -0.0492
- AAAGGTGT — lower, -0.18
- CAGGACTC — lower, -0.213
- AATTGACT — higher, 0.0682
- CCCCAGAG — lower, -0.358
- ACCCACTC — lower, -0.126
- AAGGCATT — higher, 0.322
- CCTTATTA — higher, 0.0711
- AAACTTGC — higher, 0.116
- ATGTTCTA — lower, -0.0361
- ACCTCCCA — lower, -0.193
- AGCGGTCG — lower, -0.232
- ATACGTCA — higher, 0.02
- TCCATTCA — lower, 0.00937
- CAACTCGG — lower, -0.139
- AGAGCAGC — lower, -0.0622
- GACTGACC — lower, -0.312
- ACCCACAA — higher, 0.176
- CTAGCTGC — lower, -0.167
- ACCATGCT — lower, -0.0869
- CAAGTTTC — higher, 0.127
- CCGTCGGA — lower, -0.123
- GCACTAGC — lower, -0.0111
- CCGCCCTC — lower, 0.00395
- GACCAATA — higher, 0.0246
- AGTGCCAT — higher, 0.18
- GGCTGCTA — higher, 0.0399
- ACCGGGAC — lower, -0.142
- GTGACGAA — higher, 0.0563
- CCCAAGGG — lower, -0.295
- AATAAGAG — higher, 0.164
- ATAGTTGG — higher, 0.0208
